# The other results are listed elsewhere or left out.
# Tested on: PF3D7_0420300 AP2 domain 1 (GST-tagged)
# Assay: gcPBM binding intensity (ln(normalized median fluorescence intensity)); higher = stronger DNA binding
# In short: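 In this array assay, P. falciparum DNA-binding domains with a GST tag, expressed in E. coli, were applied for 1 h to primer-extended double-stranded 36-bp intergenic genomic probes and negative controls on an Agilent 4 × 180k array. Bound protein was visualised with Alexa488 anti-GST antibody at 488 nm. Binding intensity is the highest Masliner-normalised natural-log median intensity across replicate spots of either probe orientation.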
row,Sequence,gcPBM binding intensity (ln)
1,AGTATACTCAAACACACACACACAAAAAAAAAAAAA [CACACA_site4398],10
2,TAAGAAATAAATAGTACACACATAGACACCCACCGA [CACACA_site1516],9.88
3,CAGTTTAATTTACATAGTACATAATATTTTAATTTT [XGTACX_site1793],9.13
4,GTAATATTAATATAATGTACAAAATGAAACATATAT [XGTACX_site6219],9.41
5,ACAATATTATTATTTAACCATACACAATTATATGTC [XGTACX_negctrl_site378],9.25
6,CAAAAAGATAAGGTGTGTACGTATTATAATTTTAAA [XGTACX_site531],9.45
7,ATTTAATTTTCCAAATGTACTTATATTTTTATGAAA [XGTACX_site6144],9
8,TGAAATGATCTTTAGTTGCACTTAAAAATATATATA,8.87
9,GGTATATAAAAATATTGTACTTAAAAAAATATGTAT [XGTACX_site6253],9.26
10,TATTTCACTTTTTGTCTGCACTAAAATTTTATGGTA,9.27
11,TAGATACATAAACACACACACACATACATATATACA [CACACA_site9139],10.3
12,TTTTGACTAATATAATATGTTAAGAATTAATAAATA [XGTACX_negctrl_site35],8.8
13,AAAAAAAAAAAAAACACACACATATATATAATATAT [CACACA_site3172],9.79
14,AAGTATAGTCTTACATATATATATATATATATATAT [GTGCAC_negctrl_site280],9.15
15,ATAAAACAAAGACACACACACATACACAAAAAAAAA [CACACA_site7752],10.2
16,TATCTACTTAAATAAAATAAAAATAATAAATAAAAA [TGCATGCA_negctrl_site312],9.13
17,AATAATCATGATCATAGTACGTATGAATACAAAAAA [XGTACX_site265],9.35
18,ATGTATAATATTTTCACACACAAGAAAAAAGAAAAG [CACACA_site3591],9.72
19,CGTATGTATATATATATACACACTTCTGTGATACGA [CACACA_site1949],9.33
20,TTTTATTTATTCCTACTTTTTTATTTATTTATTTAA [XGTACX_negctrl_site415],9.42
21,ACATTATGTCATAAATGTACACATACATATACATAC [XGTACX_site8998],9.35
22,AAATGAATTTAACAATGTACACATATATTATAAATA [XGTACX_site1449],9.16

row,Sequence,gcPBM binding intensity (ln)
1,TAAGTCAAAACTTTTTTTTCTAAATTTCCATAATTA [GTGCAC_negctrl_site29],8.78
2,ATATACATTCTATATACATGCATACTTCATTTTGTG [TGCATGCA_site966],9.54
3,ATATATATATGTATATGTACTCATTCTTCTGTGTTT [XGTACX_site5014],9.57
4,AAAACGATTTTTTGCACACACATAATAAGCAGAACA [CACACA_site3871],9.79
5,TACATAATAATAAGGCGTACATAAAAATTAAAAATT [XGTACX_site8769],9.43
6,TCTTTATCCTTTCTCTTTTTATTAATTATAATATTC [TGCATGCA_negctrl_site584],9.51
7,ATTATTTGTAATATAACACACACAAAAAAAGACTCG [CACACA_site8487],9.77
8,ATTAATTATGTATTTCAACAAAGAAGTGTTATATAT [GTGCAC_negctrl_site215],9.18
9,ATTATACCGTATTTTGCATGTAGTATTTTCATTTTA [TGCATGCA_site1021],9.83
10,AAATGTACAGGACGCACACACATATATATATATATA [CACACA_site3674],9.66
11,AAGGAAAATATTAACTGTACATATAAAATATATATA [XGTACX_site5310],9.23
12,ATATATACCTAAGACACACACATATATATATATATA [CACACA_site764],9.64
13,TATCATTTATATATGTGTACTTATTTATTTATTTAT [XGTACX_site7961],9.5
14,AAAGAAAATTAAAAAGAACACACAAATATATATATA [CACACA_site9196],9.67
15,ATTTATATATATTTATGTACGTATTAATTTTTTTTT [XGTACX_site3877],9.48
16,AATGAATCCTTATATACACACATTATTATAGTATAG [CACACA_site7454],9.57
17,ACGTAATTAATTCATCAGATATAATTAATAATAATA [XGTACX_negctrl_site550],9.02
18,ATAAATTTTTTTTTTTTTTTTTTTCTTTTTCTTTGT [CACACA_negctrl_site1231],9.03
19,ACTAAAGTGTATCACTGTACAATTCTTCTCTTTTTT [XGTACX_site8705],9.23
20,AATATATTTGTGTATGTGCGCAGTGTGTAATTTATT [GTGCAC_site9765],9.73
21,CATCTCATATTTTGAAGTACTAAGAAAAGATATAAA [XGTACX_site6867],9.06
22,TCAATAATAACAAATGAACACACATATATATGAGCA [CACACA_site8663],9.71

row,Sequence,gcPBM binding intensity (ln)
1,AGAAAAAAATAATGTACACACACATAGATGTTTATA [CACACA_site4271],9.63
2,AAAAAAAAAAAAAAAAGTACACAGTAGAATTAAATG [XGTACX_site1843],9.5
3,TTTTTTTTTTAATTAACACACATAAATATATATATA [CACACA_site3275],9.26
4,ATAAGTAAATTAGATACACACATGATATCATACATA [CACACA_site1623],9.51
5,GAACAATAAATAAAAAAAATAAAAATAAAAATAAAA [TGCATGCA_negctrl_site35],9.2
6,TGAAATACGAATTATTGTACTTATGTGTAAGATGGC [XGTACX_site4472],9.43
7,AAAGAAAGTACCTTCACACATATAAGAATATAATAT [CACACA_site5214],9.27
8,AAAAAAAAAATATATTGTACAAATAGATATGTCAAT [XGTACX_site122],9.23
9,AATATATTTTAATATACACACATATATGCTCTTTAA [CACACA_site9371],9.44
10,TTATTTTTTTTGTGTTGTACAATTTATTACTACTAA [XGTACX_site346],9.35
11,AAACAAATATGTAGCACACATTCACATAATATATTT [CACACA_site2335],9.4
12,TTATTTATGTGTAGGGCATGCAATCGTGTTTTTAAA [TGCATGCA_site735],9.34
13,GTATTTATAATACGGCGTACATAAAAAAAAAAAAAA [XGTACX_site3705],8.63
14,TAATATGCATAAAATTGTACAAACTTACATATAATA [XGTACX_site2752],9.26
15,TTTTCTTGACCTATTATTCTTCTCATAGTATAATAT [GTGCAC_negctrl_site641],9.3
16,TTCATAGAATTATATATTTTAAAAAAAAAAATAATT [CACACA_negctrl_site175],8.83
17,TTTTTTATAGGACATGCATGTTGTAGAGCTGTATAT [TGCATGCA_site704],9.21
18,TGTCAAAATATGTATACACACAATTTTTTTTTTTTT [CACACA_site2465],9.44
19,ATTCATTTACCAATGGTGCAATATATTTTTATAATG,9.17
20,TATATTACTTATATTTGTACACAGAAATATAAATCA [XGTACX_site13],8.95
21,TAATAAATAAAATAGAGTACAGGGATTTCATTAAAT [XGTACX_site8979],9.46
22,TTTTTCATAAGAAGCACACAAAAAATGATAGAGAAT [CACACA_site1417],9.46

row,Sequence,gcPBM binding intensity (ln)
1,TTTAAGCAAAGACACACACACATATTTATATTTATA [CACACA_site6295],9.84
2,AAACATTTATACAAAGCACACAATTTTTAACTTTTA [CACACA_site2627],9.16
3,AATAAAAAAAAAAAAAAAAAAAAAAACCTGAGGAGT [CACACA_negctrl_site1140],9.29
4,AACCTTTTAAGAGTTGCACACGTACAAAAAAAAAAA [CACACA_site9159],9.27
5,TTATAATATATATCTGCATGTTGCTTTGGGGCTTTA [TGCATGCA_site712],9.19
6,TATATTAAACAATATACACACATTAATGTAGACATA [CACACA_site8889],9.55
7,GAAAATTCTTAAGGCACACACATATAAGATATATAC [CACACA_site6410],9.68
8,TTTCAGACAAAAAAAAAAAAAAAAAAGAGGAGAATA [CACACA_negctrl_site254],9.01
9,TTTTTTTTTTTTTTTGTGCACAATATAATTTTTAAT [GTGCAC_site9747],9.02
10,TATATATATATTAATAGTACATATTATGTAAGCCTA [XGTACX_site2826],9.3
11,AAAAAATACATACATACACACATATATATATATATA [CACACA_site913],9.79
12,TCCTCTTATAATTCGTGTCCACATATATCATACAAT [XGTACX_site1523],9.4
13,ATAAAACAAATGAGTACACACACATAAAAATTGAAA [CACACA_site7949],9.85
14,TACGGATATATATATTGTACATATATATAATATATA [XGTACX_site3156],9.07
15,TTATTCATAAAAACAAAAAACAAAAATGAAATAGGA [CACACA_negctrl_site1123],9.42
16,TATGATATAATATACACACATACATATATATATATA [CACACA_site510],9.39
17,AGAGTTCTCCTATGCACACAAAAAACTTTCATTTAT [CACACA_site4193],9.25
18,TTAATATTTTATTTCACACACATAAATGCCCCAAAC [CACACA_site1887],9.66
19,TAAATAAAGATATATACACACATATTTATATTTATA [CACACA_site6431],9.42
20,AAATAATTTTTATTTGTACACACATACATATATATT [CACACA_site8240],9.6
21,CATCATATAAATTCAAGTACAAGAAAAAGTAATATA [XGTACX_site2383],9.36
22,ACAAAATTGAAATTCACACAAAAACTATACTTTTTA [CACACA_site4638],9.19

# — the supplement of paper PMC11417369
